Experimental data taken from a compilation of properties of binary mixtures (doi:10.1007/s10953-021-01067-6).
The densities may have been worked out from excess volumes.

Assay: xn = mol fraction of the nth substance listed
Conditions: 101.3 kPa

CCCCCC[NH2+]CCN.O=S(=O)([N-]S(=O)(=O)C(F)(F)F)C(F)(F)F + O
mass density (303.15 K, x1 = 0.401): 1354 kg/m3
mass density (303.15 K, x1 = 0.4387): 1359 kg/m3
mass density (303.15 K, x1 = 0.5021): 1355 kg/m3
mass density (303.15 K, x1 = 0.5762): 1357 kg/m3
mass density (303.15 K, x1 = 0.6827): 1359 kg/m3
mass density (303.15 K, x1 = 0.8153): 1365 kg/m3
mass density (303.15 K, x1 = 0.8939): 1375 kg/m3
mass density (308.15 K, x1 = 0.401): 1352 kg/m3
mass density (308.15 K, x1 = 0.4387): 1356 kg/m3
mass density (308.15 K, x1 = 0.5762): 1355 kg/m3
mass density (308.15 K, x1 = 0.6827): 1354 kg/m3
mass density (308.15 K, x1 = 0.8153): 1360 kg/m3
mass density (308.15 K, x1 = 0.8939): 1371 kg/m3
mass density (313.15 K, x1 = 0.401): 1347 kg/m3
mass density (313.15 K, x1 = 0.4387): 1349 kg/m3
mass density (313.15 K, x1 = 0.5021): 1347 kg/m3
mass density (313.15 K, x1 = 0.5762): 1349 kg/m3
mass density (313.15 K, x1 = 0.6827): 1350 kg/m3
mass density (313.15 K, x1 = 0.8153): 1354 kg/m3
mass density (313.15 K, x1 = 0.8939): 1366 kg/m3
mass density (318.15 K, x1 = 0.401): 1340 kg/m3
mass density (318.15 K, x1 = 0.4387): 1347 kg/m3
mass density (318.15 K, x1 = 0.5021): 1340 kg/m3
mass density (318.15 K, x1 = 0.6827): 1347 kg/m3
mass density (318.15 K, x1 = 0.8153): 1351 kg/m3
mass density (318.15 K, x1 = 0.8939): 1362 kg/m3
mass density (323.15 K, x1 = 0.4387): 1343 kg/m3
mass density (323.15 K, x1 = 0.5021): 1341 kg/m3
mass density (323.15 K, x1 = 0.5762): 1338 kg/m3
mass density (323.15 K, x1 = 0.6827): 1343 kg/m3
mass density (323.15 K, x1 = 0.8153): 1347 kg/m3
mass density (323.15 K, x1 = 0.8939): 1358 kg/m3
mass density (328.15 K, x1 = 0.401): 1330.5 kg/m3
mass density (328.15 K, x1 = 0.4387): 1337 kg/m3
mass density (328.15 K, x1 = 0.5762): 1335 kg/m3
mass density (328.15 K, x1 = 0.8153): 1342 kg/m3
mass density (328.15 K, x1 = 0.8939): 1353 kg/m3
mass density (333.15 K, x1 = 0.401): 1324.6 kg/m3
mass density (333.15 K, x1 = 0.4387): 1330 kg/m3
mass density (333.15 K, x1 = 0.5021): 1332 kg/m3
mass density (333.15 K, x1 = 0.5762): 1332 kg/m3
mass density (333.15 K, x1 = 0.6827): 1331 kg/m3
mass density (333.15 K, x1 = 0.8153): 1335 kg/m3
mass density (333.15 K, x1 = 0.8939): 1347 kg/m3
mass density (338.15 K, x1 = 0.401): 1320.4 kg/m3
mass density (338.15 K, x1 = 0.4387): 1325.7 kg/m3
mass density (338.15 K, x1 = 0.5762): 1327.1 kg/m3
mass density (338.15 K, x1 = 0.6827): 1325.5 kg/m3
mass density (338.15 K, x1 = 0.8153): 1329.8 kg/m3
mass density (338.15 K, x1 = 0.8939): 1341 kg/m3
mass density (343.15 K, x1 = 0.401): 1317.5 kg/m3
mass density (343.15 K, x1 = 0.4387): 1319.9 kg/m3
mass density (343.15 K, x1 = 0.5021): 1325.3 kg/m3
mass density (343.15 K, x1 = 0.5762): 1321.1 kg/m3
mass density (343.15 K, x1 = 0.8939): 1338 kg/m3
mass density (348.15 K, x1 = 0.4387): 1314.2 kg/m3
mass density (348.15 K, x1 = 0.5021): 1321.2 kg/m3
mass density (348.15 K, x1 = 0.6827): 1318.7 kg/m3
mass density (348.15 K, x1 = 0.8153): 1321.1 kg/m3
mass density (348.15 K, x1 = 0.8939): 1333 kg/m3
mass density (353.15 K, x1 = 0.401): 1306.2 kg/m3
mass density (353.15 K, x1 = 0.4387): 1309.8 kg/m3
mass density (353.15 K, x1 = 0.5021): 1316.3 kg/m3
mass density (353.15 K, x1 = 0.6827): 1314 kg/m3
mass density (353.15 K, x1 = 0.8153): 1317.4 kg/m3
mass density (353.15 K, x1 = 0.8939): 1330 kg/m3
